Hit rate of the full screen: of about 310,000 compounds, about 14,000 (4.5%) showed an effect of 50% or more. The effect is printed as a negative number. This is one part of the list.
These compounds were tested against human ether-à-go-go-related gene (hERG) potassium channel (human, UniProt Q12809) (assay: primary screen, population patch clamp on CHO cells stably expressing hERG).
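Note: peak tail current of the secondary pulse compared with the same well before compound.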

Sequence of human ether-à-go-go-related gene (hERG) potassium channel (Q12809 whole entry, looked up): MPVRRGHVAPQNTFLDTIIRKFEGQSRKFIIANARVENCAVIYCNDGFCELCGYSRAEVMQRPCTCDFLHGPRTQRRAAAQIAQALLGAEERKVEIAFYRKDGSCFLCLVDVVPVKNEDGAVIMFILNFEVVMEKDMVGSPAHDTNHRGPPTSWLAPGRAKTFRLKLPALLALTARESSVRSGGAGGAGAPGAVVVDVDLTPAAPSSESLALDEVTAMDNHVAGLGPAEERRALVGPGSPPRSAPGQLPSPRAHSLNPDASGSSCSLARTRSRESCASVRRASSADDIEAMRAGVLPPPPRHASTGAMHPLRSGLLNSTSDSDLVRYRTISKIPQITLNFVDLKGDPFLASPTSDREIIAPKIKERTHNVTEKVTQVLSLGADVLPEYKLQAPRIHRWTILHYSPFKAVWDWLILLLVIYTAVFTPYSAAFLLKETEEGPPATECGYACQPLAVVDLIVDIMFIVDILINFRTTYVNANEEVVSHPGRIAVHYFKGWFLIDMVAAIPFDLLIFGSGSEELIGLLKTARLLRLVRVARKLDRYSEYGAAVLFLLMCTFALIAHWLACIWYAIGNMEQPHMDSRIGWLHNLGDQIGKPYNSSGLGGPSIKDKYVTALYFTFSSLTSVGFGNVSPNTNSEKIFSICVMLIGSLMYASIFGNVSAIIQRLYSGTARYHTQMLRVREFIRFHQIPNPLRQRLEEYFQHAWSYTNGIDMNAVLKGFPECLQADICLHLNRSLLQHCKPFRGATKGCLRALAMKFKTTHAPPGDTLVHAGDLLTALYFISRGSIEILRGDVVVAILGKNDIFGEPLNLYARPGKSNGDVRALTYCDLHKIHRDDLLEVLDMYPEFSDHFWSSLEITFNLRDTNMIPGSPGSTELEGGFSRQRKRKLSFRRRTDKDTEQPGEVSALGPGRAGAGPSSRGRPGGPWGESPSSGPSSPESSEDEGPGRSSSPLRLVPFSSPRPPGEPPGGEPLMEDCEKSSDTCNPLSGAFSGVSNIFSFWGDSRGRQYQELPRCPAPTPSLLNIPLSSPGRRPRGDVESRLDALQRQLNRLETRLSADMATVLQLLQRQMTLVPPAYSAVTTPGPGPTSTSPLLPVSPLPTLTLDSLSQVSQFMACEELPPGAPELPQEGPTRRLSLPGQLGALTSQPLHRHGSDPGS

SMILES	hERG current change (%, negative = inhibition) at 10uM
O=C(Cc1c(F)cccc1Cl)Nc1ccncc1	-16.2%
CCc1ccc(S(=O)(=O)N2CCN(c3ncccn3)CC2)cc1	21.1%
Cc1cc(OCC(=O)Nc2cccc(S(=O)(=O)N3CCCCC3)c2)ccc1Cl	-3.31%
Cc1ccc(SCC(=O)OCC(=O)N(C)CC(=O)Nc2ccc(F)cc2)cc1C	-38.7%
COC(=O)Cn1c(=O)c2c(nc(Br)n2Cc2ccccc2Cl)n(C)c1=O	-20.8%
CN(C)CCn1c(=O)n(C2CCCCC2)c(=O)c2c3c(sc21)CCCCC3	-25.3%
CN1C(=S)SC2CS(=O)(=O)CC21C (stereo not shown)	0.679%
Cc1ccc(C(=O)Nc2ccc(S(=O)(=O)N3CCc4ccccc4C3)cc2)o1	1.81%
Cc1cc2oc(=O)cc(Cn3ccnc3)c2cc1Cl	15%
CCCOc1ccc2oc(=O)c3c(c2c1)CCCN3C(=O)CN1CCN(c2ncccn2)CC1	-70.1%
Cc1ccc2nc(-c3ccncc3)cc(C(=O)Nc3ccc4c(c3)OCCO4)c2c1	3.46%
O=C1[C@H]2[C@@H](c3ccc(F)cc3)N3C(=O)N(c4ccc(C(F)(F)F)cc4)C(=O)[C@@]3(Cc3ccccc3)[C@H]2C(=O)N1C1CCCCC1	10.9%
COc1ccc(-c2cc(C(=O)N3CCCCCC3)no2)cc1OC	7.06%
CCC(=O)c1ccc(OC)c(OC)c1O	7.65%
Cc1ccc(C(=O)c2cc([N+](=O)[O-])ccc2N2CCOCC2)cc1C	-17%
C=CCN1C(=O)C(CC(=O)O)SC1=Nc1ccc(C)cc1 (stereo not shown)	10.3%
COc1cc(OC)cc(-c2cc3nc(C4CCN(C(=O)OC(C)(C)C)CC4)cc(=O)n3[nH]2)c1	0.583%
O=C(CSc1nnc(-c2ccccc2)c2ccccc12)NCCN1C(=O)CSC1=O	-27.6%
O=C(OCC(=O)N1CCN(C(=O)c2ccco2)CC1)c1cc(-c2cccc(Br)c2)nc2ccccc12	-19.6%
CN(CC(=O)Nc1ccc(Cl)c(Cl)c1)C(=O)/C=C/c1ccc(F)cc1	1.66%
CCc1cc(C(=O)OC)c(NC(=O)CN2CCN(C(=O)c3ccco3)CC2)s1	-51.6%
CC(C)NC(=O)C1CCCN(S(=O)(=O)c2ccc(-n3cnnn3)cc2)C1 (stereo not shown)	-15.3%
CCCCn1c(O)c(C(=O)/C=C/c2c[nH]c3ccccc23)c(=O)[nH]c1=O	2.9%
O=C(CN1C(=O)c2ccccc2C1=O)NCCc1c[nH]c2ccccc12	-15.5%
CCOc1ccccc1C(=O)NCC(=O)O	22.6%
COc1ccc([N+](=O)[O-])cc1NC(=O)Nc1ccc(OC)c(OC)c1	8.37%
COc1ccc(O)c(C(=O)c2cc(C#N)c(=O)n(Cc3ccccc3)c2)c1	-20%
C#CC1(NC(=O)NC(C)C)CCCCC1	11.4%

SMILES	hERG current change (%, negative = inhibition) at 10uM
CC(=O)c1nn(-c2cccc(C(F)(F)F)c2)c(=O)[nH]c1=O	13%
Cc1nn(-c2ccccc2)c2nc(N)c(C(N)=O)cc12	6.55%
O=C1c2ccccc2CCC12N=NCC2c1ccccc1 (stereo not shown)	-25.4%
O=C(c1ccc([N+](=O)[O-])o1)N(Cc1nnc(-c2ccccc2Cl)o1)C1CC1	-20.9%
O=C(/C=C1\SC(=O)NC1=O)Nc1ccc(C(=O)O)cc1	24.4%
O=C(COc1ccc(Br)cc1)Nc1ccccc1C(=O)NC1CC1	-6.57%
O=C(Nc1c[nH]c2c(Cl)cccc2c1=O)N1CCN(c2ccccn2)CC1	-1.82%
Cc1c(C(=O)N2CCN(Cc3ccc4c(c3)OCO4)CC2)cccc1[N+](=O)[O-]	-20.1%
Fc1cccc(Nc2nc(N3CCOCC3)nc(N3CCOCC3)n2)c1	-16.3%
CS(=O)(=O)Nc1ccc(C(=O)NCc2ccccn2)cc1	0.863%
Cc1cccc(C(=O)NCCCNC(=O)c2ccc(C)nc2)c1	6.82%
C/C(CCC(=O)O)=N/Nc1ccc([N+](=O)[O-])cc1[N+](=O)[O-]	-20.6%
Cc1cc(C)c(C)c(S(=O)(=O)NCCCN2CCOCC2)c1C	13.6%
CC(C)(C)S(=O)(=O)c1c(C(=O)O)cccc1C(=O)O	4.59%
CC(C)Oc1nc(-c2ccccc2O)nc2ccccc12	5.18%
Cc1nc2ccc(NC(=O)N(C)c3ccccc3)cc2s1	-11.3%
O=C(CN(C(=O)CCC(=O)Nc1ccccn1)c1ccccc1F)NCc1ccc2c(c1)OCO2	10%
COc1ccc(C(=O)NCCS(=O)(=O)NCc2cccs2)cc1	-29.5%
CCCc1ccc(S(=O)(=O)N(C)S(=O)(=O)c2ccc(F)cc2)cc1	8.38%
CC(C)(C)OC(=O)N1CCC(NC(=O)c2[nH]cnc2C(=O)Nc2ccon2)CC1	-33.2%
c1cncc(CSc2ccc(-c3ccc4c(c3)OCO4)nn2)c1	-8.44%
CCOc1ccc2[nH]c(=O)c(C(c3nnnn3Cc3ccco3)N3CCCC(C)C3)cc2c1 (stereo not shown)	-4.69%
COc1ccc(C2C([N+](=O)[O-])=C(N)Oc3c2c(=O)oc2ccccc32)cc1 (stereo not shown)	5.61%
CN1CCN(c2ccc(S(=O)(=O)N3CCCCC3)cc2NC(=O)CCc2ccccc2)CC1	-53.3%
COc1ccc(Cc2nnc(N/N=C(\C)c3ccccc3)[nH]c2=O)cc1OC	17.8%
CCOC(=O)c1sc(NC(=O)Nc2ccccc2Cl)cc1C	0.573%
CCOc1ccc(NC(=O)CSC(N)=O)cc1	17%

Reference: paper PMC4336329 (PLoS ONE, 2015)
